{"source": "PubChem BioAssay AID938", "about": "(National Center for Advancing Translational Sciences (NCATS), 2007)", "note": "The whole screen tested about 73,000 compounds, of which about 1,800 (2.5%) were called active. The inconclusive results got no clear call from the source; some entries with a clear call stand among them for comparison. The call rests on the fitted dose curve; in most records, active means well fitted activation curve with a large enough effect; inconclusive means small, poorly fitted or top-dose-only effect; inactive means no such curve, though single readings can be large or run the other way. No potency is given beside an inconclusive call; the fits are too rough. Potency means the concentration at half of the fitted maximal effect; tags describe the fitted curve by direction and shape.", "data": [{"assay": "qHTS Assay for Agonists of the Thyroid Stimulating Hormone Receptor: Activators of Intracellular cAMP Concentrations in Parental HEK 293; further: nearly all actives have a fitted effect of over 55% in size; on activation: % of control where 0% means no effect", "conditions": "parental HEK293 CNG cAMP sensor, membrane potential fluorescence; activation: at 57.1 µM (top of the series) unless noted", "summary_of_the_method": "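Counterscreen for endogenous-receptor signalling: CNG-channel HEK 293 cells report cAMP rise by membrane depolarization. After 60 min dye equilibration with 100 uM RO 20-1724, compounds incubated 30 min before bottom-read fluorescence at 590 nm.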", "values": [{"smiles": "Cc1cccc(-n2nnnc2SC(C)C(=O)NCCC2=CCCCC2)c1", "note": "(centres undefined)", "Potency": "active: 12.6 µM"}, {"smiles": "O=C1C(O)=C(O)C(=O)C(O)=C1O", "activation": "inactive: 2.84% [at 25.6 µM]"}, {"smiles": "CN1CCN(c2ncc3nc(-c4ccccc4)c(=O)n(Cc4ccc(F)cc4)c3n2)CC1", "Potency": "inconclusive [activator, partial curve]"}, {"smiles": "COc1ccc(OC)c(/C=c2\\sc3nc(-c4cccs4)nn3c2=O)c1", "activation": "inactive: 2.13%"}, {"smiles": "O=C(O)Cn1nnn(-c2ccccc2)c1=S", "Potency": "inconclusive [activator, single point]"}, {"smiles": "O=C(c1cc(C(F)(F)F)cc(C(F)(F)F)c1)N1CCC[C@@]2(CCN(Cc3ccccc3)C2)C1", "Potency": "inconclusive [activator, partial curve]"}, {"smiles": "CCSc1nc(N2CCOCC2)c2c(c1C#N)CCCC2", "Potency": "inconclusive [activator, single point]"}, {"smiles": "CCCCNc1nc(C)nc2c1nc(-c1ccccc1)n2CCCN(C)C", "activation": "inactive: 27.7%"}, {"smiles": "CCc1ccc(N/C(SCc2cccc(F)c2)=C(/C#N)C(=O)NCc2ccco2)cc1", "Potency": "inconclusive [activator, partial curve]"}, {"smiles": "O=C(Nc1nccs1)C1CCCN1S(=O)(=O)c1ccc(Cl)cc1", "note": "(centres undefined)", "activation": "inactive: -1.98%"}, {"smiles": "On1onc2c3cc(-c4ccccc4)nc3ccc21", "activation": "inactive: -28.5%"}, {"smiles": "Cc1cnc(CNc2cc(-c3ccccc3Cl)ncn2)cn1", "Potency": "inconclusive [activator, single point]"}, {"smiles": "O=C(Nc1nc(-c2nc3ccccc3s2)cs1)c1ccco1", "Potency": "inconclusive [activator, single point]"}, {"smiles": "CCOC(=O)c1oc2ccccc2c1NC(=O)c1cccs1", "Potency": "inconclusive [activator, single point]"}, {"smiles": "O=C(O)CCc1nc(-c2ccc(Cl)cc2)no1", "Potency": "inconclusive [activator, single point]"}, {"smiles": "COC(=O)N1CCC2(CCN(C(=O)Nc3ccc(OC)cc3)CC2)CC1", "Potency": "active: 15.8 µM"}, {"smiles": "COc1ccc(Oc2ncc3nc(-c4cccs4)c(=O)n(C)c3n2)cc1", "Potency": "inconclusive [activator, partial curve]"}, {"smiles": "C=CCn1c(SCc2ccc(C#N)cc2)nnc1-c1cccc(Cl)c1", "Potency": "inconclusive [activator, partial curve]"}, {"smiles": "CC(=O)Nc1ccc(N2CCN(C(C)=O)CC2)cc1", "activation": "inactive: 21.5%"}, {"smiles": "CCOC(=O)c1cc2sccc2n1CC(=O)N1CCc2ccccc21", "Potency": "active: 15.8 µM"}, {"smiles": "N#CCCn1c(=O)c(-c2cccc(C#N)c2)nc2cnc(N3CCOCC3)nc21", "activation": "inactive: 8.88%"}, {"smiles": "CCN1CCCC1Cn1c(-c2ccccc2)nc2c(NCc3ccccc3)nc(C)nc21", "note": "(centres undefined)", "Potency": "inconclusive [activator, partial curve]"}, {"smiles": "O=C(Nc1nc(-c2ccccc2)cs1)c1cccs1", "Potency": "inconclusive [activator, partial curve]"}, {"smiles": "COc1ccc(-c2noc(C)c2-c2ccc3ccccc3n2)c(O)c1", "activation": "inactive: 17.2%"}, {"smiles": "CC(C)Oc1ccc(C(=O)Nc2ccc(N3CCCC3)cc2)cc1", "activation": "inactive: -9.77% [at 11.4 µM]"}, {"smiles": "COC(=O)[C@@]1(Cc2ccc(OC)cc2)[C@H]2c3cc(C(=O)N4CCCC4)n(CCn4cc([N+](=O)[O-])nc4C)c3C[C@H]2CN1C(=O)c1ccccc1", "activation": "inactive: -0.378%"}, {"smiles": "O=C(Nc1cccc(F)c1)N1CC=C(n2c(=O)[nH]c3ccccc32)CC1", "activation": "inactive: -9.78%"}, {"smiles": "C=C[C@@](C)(O)CC[C@H]1[C@]2(C)CCCC(C)(C)[C@H]2CC[C@]1(C)O", "activation": "inactive: -7.13%"}, {"smiles": "CC1=CC(C)(C)N=C(Nc2ccc(C)cc2)S1", "Potency": "inconclusive [activator, single point]"}, {"smiles": "COc1ccc(-c2noc(Cc3ccccc3OC)n2)cc1", "Potency": "inconclusive [activator, single point]"}, {"smiles": "O=S(=O)(c1ccc(S(=O)(=O)N(Cc2ccco2)Cc2ccccc2Cl)cc1)N1CCCC1", "activation": "inactive: 15.1%"}, {"smiles": "COCCn1c(SCC(=O)N2CCCCC2)nc2ccccc2c1=O", "activation": "inactive: 19.6%"}, {"smiles": "CCc1ccccc1Nc1nc(N)nc(CSCC(=O)c2cc(C)n(C)c2C)n1", "Potency": "inconclusive [activator, full curve]"}, {"smiles": "CCCCOC(=O)Cn1c(=N)n(CCC)c2ccccc21", "Potency": "inconclusive [activator, partial curve]"}, {"smiles": "COc1ccccc1C(=O)N1CCN(c2cccc(C(F)(F)F)c2)CC1", "Potency": "inconclusive [activator, partial curve]"}, {"smiles": "CCOC(=O)CSc1ccc2nnc(-c3cccs3)n2n1", "Potency": "inconclusive [activator, single point]"}, {"smiles": "COc1ccc(OC)c(C(c2nnnn2Cc2ccccc2)N2CCN(C)CC2)c1", "note": "(centres undefined)", "Potency": "inconclusive [activator, single point]"}, {"smiles": "Cc1ccc(NC(=O)CSc2nnc(-c3cnccn3)n2Cc2ccco2)cc1C", "activation": "inactive: 0.776%"}, {"smiles": "O=C(O)Cc1[nH]cnc1C(=O)O", "activation": "inactive: 4.4% [at 11.4 µM]"}, {"smiles": "CCCn1c2ccccc2c2nnc(SCC(=O)OC)nc21", "activation": "inactive: 16.4% [at 11.4 µM]"}, {"smiles": "Cc1noc(C)c1-c1cc(NCc2cccs2)ncn1", "Potency": "inconclusive [activator, full curve, poor fit]"}, {"smiles": "O=S(=O)(NC1CC2CCC1C2)c1ccc2c(c1)OCCO2", "note": "(centres undefined)", "activation": "inactive: -2.22%"}, {"smiles": "Cn1c(=O)c2c(nc(CN3CCN(c4ccc(F)cc4)CC3)n2CCN2CCOCC2)n(C)c1=O", "activation": "inactive: 5.63%"}, {"smiles": "Cc1nc(NCc2ccccc2)c2nc(-c3ccccc3)n(CCN3CCCCC3)c2n1", "Potency": "inconclusive [activator, full curve, poor fit]"}, {"smiles": "O=C(Cn1nnc2c(cnn2-c2ccc(F)cc2)c1=O)OC1CCCCC1", "Potency": "inconclusive [activator, partial curve]"}, {"smiles": "COC(=O)[C@@]1(Cc2ccccc2)C=C[C@@H](C)N1C(C)=O", "activation": "inactive: 3.35%"}, {"smiles": "CCOc1ccc(C(=O)Nc2cc(OC)ccc2OC)cc1", "Potency": "inconclusive [activator, partial curve]"}, {"smiles": "CCOC(=O)N1CCC(O)(c2cc(C)c(C)cc2C)CC1", "activation": "inactive: 22.9%"}, {"smiles": "CN(Cc1ccco1)c1cc(-c2ccoc2)ncn1", "activation": "inactive: -1.22%"}, {"smiles": "Cc1cnc(CNc2cc(-c3ccccc3CN(C)C)ncn2)cn1", "Potency": "inconclusive [activator, partial curve, poor fit]"}, {"smiles": "Cn1cccc1C(=O)N1CCC2(CCCN(Cc3nccs3)C2)CC1", "activation": "inactive: 12.1%"}, {"smiles": "COC(=O)c1ccc2c(c1)S(=O)(=O)NC(=NCCCN1CCOCC1)S2", "Potency": "inconclusive [activator, single point]"}, {"smiles": "O=C(Nc1ccc2c(c1)OCCO2)c1c(F)c(F)c(F)c(F)c1F", "activation": "inactive: 15.5%"}, {"smiles": "CCN(CC)C(=O)COc1cccc2ccccc12", "Potency": "inconclusive [activator, partial curve]"}, {"smiles": "CC(C)CC1(C(=O)NCCc2c[nH]c3ccccc23)C=CCN1C(=O)c1ccccc1", "note": "(centres undefined)", "Potency": "inconclusive [activator, partial curve]"}, {"smiles": "CN(Cc1ccccc1)c1oc(COc2ccccc2F)nc1C#N", "Potency": "active: 25.1 µM"}, {"smiles": "Cc1noc(C)c1C(=O)N1CCC[C@@]2(CCN(Cc3ccc(C#N)cc3)C2)C1", "Potency": "inconclusive [activator, partial curve]"}, {"smiles": "CCOC(=O)CCSc1nc2c(c(C(F)(F)F)c1C#N)CCC2", "Potency": "inconclusive [activator, single point]"}, {"smiles": "CCn1cc(C(=O)NCCOC)c(=O)c2ccc(C)nc21", "Potency": "inconclusive [activator, single point]"}, {"smiles": "CCCCn1c(SCC(=O)NCc2ccco2)nnc1-c1ccco1", "Potency": "inconclusive [activator, full curve, poor fit]"}, {"smiles": "COc1ccc(S(=O)(=O)N2CCCCCC2)cc1C(=O)OCc1c(C)noc1C", "activation": "inactive: 4.89%"}, {"smiles": "O=S(=O)(c1cccc(S(=O)(=O)N2CCC(n3nnc4ccccc43)CC2)c1)N1CCCCC1", "Potency": "inconclusive [activator, single point]"}, {"smiles": "COc1ccc2nc3oc(C(=O)N4CCN(c5cccc(C(F)(F)F)c5)CC4)cc3cc2c1", "Potency": "inconclusive [activator, single point]"}, {"smiles": "Cc1occc1-c1nnc(SCC(=O)NCCc2ccccc2)n1C(C)c1ccccc1", "note": "(centres undefined)", "Potency": "inconclusive [activator, single point]"}, {"smiles": "Cn1c(SCc2ccccn2)nnc1-c1ccncc1", "Potency": "inconclusive [activator, single point]"}, {"smiles": "N=c1c2c(-c3ccccc3)c(-c3ccccc3)oc2ncn1CCCN1CCOCC1", "Potency": "inconclusive [activator, partial curve]"}, {"smiles": "CCCCNC(=O)c1cn(C)c2ccc(S(=O)(=O)N3CCOCC3)cc2c1=O", "Potency": "inconclusive [activator, single point]"}, {"smiles": "CC(=O)c1ccc(OCC(C)C)c(CN2CCCCC2)c1", "Potency": "inconclusive [activator, partial curve]"}, {"smiles": "c1coc(CSCc2cn3cccnc3n2)c1", "activation": "inactive: -0.134%"}, {"smiles": "c1ccc2c(c1)oc1c(N3CCN(Cc4ccc5c(c4)OCO5)CC3)ncnc12", "Potency": "inconclusive [activator, single point]"}, {"smiles": "COCC(C)n1c(C)cc(C(=O)CSc2nc3ccccc3c(=O)[nH]2)c1C", "note": "(centres undefined)", "Potency": "inconclusive [activator, single point]"}, {"smiles": "COc1cc(C(=O)OCC(=O)c2cc(C)n(C)c2C)cc(NC(=O)c2ccco2)c1OC", "Potency": "inconclusive [activator, partial curve]"}, {"smiles": "CCc1ccc(N2CSC3=C(C#N)C(c4cccs4)CC(=O)N3C2)cc1", "note": "(centres undefined)", "activation": "inactive: 15.2%"}, {"smiles": "O=C(CSc1ncc(-c2ccc(F)cc2)n1Cc1ccco1)Nc1nccs1", "Potency": "inconclusive [activator, full curve]"}]}]}
